Data from PubChem BioAssay (Tox21).
Inconclusive means that the source gave no clear call. Such entries were picked first, then a sample of the others. Entries that show only a call come without a potency. Where the call is inconclusive, the potency comes from a doubtful curve fit. Calls of active or inactive are those of the source. Calls come from the whole dose curve; as a rule, active = well fitted cell-killing curve with a large enough effect in the repeat runs; inconclusive = weak or mixed curves, or effect the other way; inactive = no such curve, though single readings can be large or run the other way.

Test: qHTS assay to identify small molecule antagonists of the peroxisome proliferator-activated receptor gamma (PPARg) signaling pathway - cell viability counter screen (AID 743194); note: nearly all actives have a fitted effect of over 55% in size
Conditions: PPARg-bla HEK293H viability, CellTiter-Glo luminescence, 17 h, co-treated with 50 nM rosiglitazone; series mostly up to 62.6 µM
Procedure, shortened: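 Cytotoxicity counter screen in PPARg-bla HEK293H cells, same wells as reporter assay. Compounds plus 50 nM rosiglitazone (final) for 17 h at 37 C, then viability read by CellTiter-Glo luminescence.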
Potency is the fitted concentration of half-maximal effect; tags give direction and shape of the fitted curve.

SMILES | Potency
CC(C)(C)NCC(O)COc1ccc(NC(=O)NC2CCCCC2)cc1 (stereo not drawn) | inactive
O=C(Nc1ccc(Cl)c(Cl)c1)C1CC1 | inconclusive: 8.4 nM [cytotoxic, full curve, poor fit]
CC(C(=O)O)c1ccc(C(=O)c2ccccc2)s1 (stereo not drawn) | inactive
